Laboratory results: the RNAGym collection of RNA variant scans (doi:10.7554/elife.90254)
The source gives no read counts; variants with many changes may rest on few reads.

B1: LINE1-full (parent)
chain: UACGUAGGUGGUUUUCCCCUGAUAGUGCUAAGGGGGCCUGGAAGUUUGGACUGGGCAGAGCUCAACACAGCGUGGCAAAGUGGCUGUGGCUAGACUGCCUCUCUGGAUUCCUCGUCACUCAGCAGGGCAUCUCUGAGAGAAAUGCC

Variants of: B1
Assay: self-cleavage, relative activity (ratio to wild type); higher = more cleavage; in vitro, sequencing; the parent is a self-cleaving ribozyme

| Variant | self-cleavage |
| --- | --- |
| C103A U115C U143C | 1.66 |
| C103U A121U A138U | 1.63 |
| U104A A107G C113G | 1.15 |
| U104A A124G A138G | 0.94 |
| U104A A129G U130C | 1.61 |
| U104A A136G A142U | 2.02 |
| U104A U112A A121U A124U | 0.82 |
| U104C A107G A124U | 2.55 |
| U104C A107G G139U | 1.1 |
| U104C A107U U134C A141G | 2.3 |
| U104C A124G U134A U143C | 0.44 |
| U104C G127A A136G | 0.39 |
| U104C U112C A141G | 1.15 |
| U104C U119C A136U | 1.06 |
| U104C U130C U134A | 0.43 |
| U104G U119C A141G | 1.93 |
| G105A U112A U119C | 1.12 |
| G105A U115A A138G | 1.36 |
| G105U A117G U143C | 1.87 |
| G105U U108C U115C | 2.04 |
| A107G A117U U143C | 1.32 |

| Variant | self-cleavage |
| --- | --- |
| A107G A124U U134C | 1.1 |
| A107G A136U U143G | 1.29 |
| A107G A138G A141G | 1.1 |
| A107G C123U U132C | 1.02 |
| A107G U108A U119C U132C | 1.14 |
| A107G U108C U134C | 1.84 |
| A107G U109C A140G | 0.9 |
| A107G U134C A140G | 2.95 |
| A107G U134C A140U | 2.59 |
| A107U A117G A124U | 1.8 |
| A107U A121G U130C | 1.64 |
| A107U A121U A142G | 0.91 |
| A107U U115C A124U | 1.78 |
| A107U U115C U143A | 2.43 |
| A107U U119C A124G | 0.68 |
| A107U U119C C120U | 1.6 |
| U108A A136U A140G | 1.37 |
| U108A A138U U143C | 1.55 |
| U108C A121G U130A | 1.48 |
| U108C A124G A136G | 0 |
| U108C A129G C133U A136U | 2.51 |

| Variant | self-cleavage |
| --- | --- |
| U108C A141C A142G | 2.21 |
| U108C A142G U143A | 1.7 |
| U108C U119C A121G | 0 |
| U108C U130C A138G | 1.53 |
| U108C U132C A136G | 1.53 |
| U108C U134C A136G | 2.53 |
| U109A G114A U119A | 1.86 |
| U109A U112C C133U | 1.17 |
| U109A U115C A142G | 1.56 |
| U109C A117U A136G | 2.28 |
| U109C U115C U134A | 0.52 |
| U109C U119A A129U | 1.59 |
| U109C U134C A142G | 1.74 |
| U109G U134G A140G | 0.15 |
| C111U U112C U115C A138G G139A | 1.62 |
| U112A A129C U132C A140G | 1.15 |
| U112A U115C G126U | 1.3 |
| U112C A117G A138U | 1.41 |
| U112C A129G U134C | 0.59 |
| U112C A129U U130A | 1.62 |
| U112C A136G A140G A142G | 1.72 |

| Variant | self-cleavage |
| --- | --- |
| U112C A140G A141G | 1.12 |
| U112C C113U U130C | 1.15 |
| U112C C116U C145U | 0.94 |
| U112C G122U A129G | 1.3 |
| U112C G127U C128U A136U | 1.35 |
| U112C G127U U130A | 0.65 |
| U112C U130C U143C | 2.53 |
| C113A A117U A124U | 1.33 |
| C113A G127U U132C U143C | 1.59 |
| C113U A117G A129G U134C | 1.34 |
| C113U U119C A142G | 1.5 |
| G114A U115C U119C C128U U132C | 1.84 |
| G114U U115C A142G | 1.61 |
| U115A A117G A121G | 1.84 |
| U115A A117G A136G | 1.41 |
| U115A A138G U143A | 2.06 |
| U115A U132C A141G | 2.06 |
| U115C A124G A140U | 1.31 |
| U115C A129G U143C | 0.71 |
| U115C A129U U132C | 2.11 |
